# Whole data set: some 33,000 sequences, median “E-score (-0.5 to 0.5)” near -0.035, cut for the highest 2% near 0.34. Some of the results follow.
# Biological target: T1, Mot3 (UniProt P54785)
# T1 sequence: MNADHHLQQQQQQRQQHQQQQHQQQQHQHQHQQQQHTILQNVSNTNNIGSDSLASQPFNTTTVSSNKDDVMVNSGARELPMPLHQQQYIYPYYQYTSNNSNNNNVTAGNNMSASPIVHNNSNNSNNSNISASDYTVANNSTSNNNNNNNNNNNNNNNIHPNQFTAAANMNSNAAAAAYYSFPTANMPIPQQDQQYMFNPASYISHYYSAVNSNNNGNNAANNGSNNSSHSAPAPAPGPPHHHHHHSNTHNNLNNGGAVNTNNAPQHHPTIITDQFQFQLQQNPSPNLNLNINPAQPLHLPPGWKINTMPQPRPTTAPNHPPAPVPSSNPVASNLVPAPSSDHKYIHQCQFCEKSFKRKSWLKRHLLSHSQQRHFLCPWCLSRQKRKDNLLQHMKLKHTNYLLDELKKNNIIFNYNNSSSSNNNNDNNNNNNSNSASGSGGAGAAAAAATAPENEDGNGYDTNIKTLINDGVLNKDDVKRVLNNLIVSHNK
# Test: PBM E-score (8-mer binding enrichment) (E-score (-0.5 to 0.5)); higher = stronger / more preferred TF binding; most listed sequences are background and not binding sites
# Conditions: protein concentration: 200 nM; construct: GST-full length
# Outline: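 Universal all-10-mer Agilent arrays, fresh or stripped once, were converted to double-stranded form by primer extension. GST-tagged yeast transcription factors from PURExpress in vitro transcription/translation, full-length or DNA-binding domain only, were applied at about 100-200 nM and detected with fluorescent anti-GST. After masliner normalisation, the Universal PBM Analysis Suite scored each ungapped eight-base word together with its reverse complement by E-score.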
row,Sequence,PBM E-score
1,CCCGCTTA,-0.244
2,CAAGGGTC,-0.219
3,AGCAAATA,-0.00724
4,GGCTCTAA,0.0881
5,CTGCGTGA,0.111
6,AAGATTGC,0.0785
7,GGGTTGCA,0.106
8,GGTATGAA,0.00221
9,CCAGATAG,-0.123
10,AAAGTTAT,0.169
11,CGGTATTC,-0.027
12,ATGGAGAC,-0.228
13,CATGCACC,0.0817
14,CTCGAGTC,-0.122
15,GAGCCCAA,-0.136
16,ATTATATC,0.0718
17,AGAATTGC,0.0267
18,AGTGCTAC,-0.0891
19,CAAGCTGC,-0.00705
20,CCAAGGAC,-0.205
21,CAATAACA,0.241
22,AGAACGCA,0.0555

row,Sequence,PBM E-score
1,TCGATCAA,-0.045
2,TGAGCAAA,-0.0898
3,ACACCGAT,0.0564
4,AGTTGACA,0.183
5,ACCGCATA,0.0346
6,CCGGCGTC,-0.189
7,CTCGCGTC,-0.0669
8,CAATATAC,0.0688
9,ACTATTCT,0.0156
10,CGTGCTTA,0.145
11,GCCATCCC,-0.168
12,ACAGACAC,0.138
13,CCTACATC,-0.0321
14,GCTCATCA,-0.0165
15,GAATTATC,0.0318
16,CACAAAAC,0.219
17,CCCCATCC,-0.28
18,ATAAGGTG,0.206
19,GACATCGC,0.0096
20,ATGGTCCA,-0.0445
21,TCGGACAA,-0.133
22,TTAGATAA,0.0208

row,Sequence,PBM E-score
1,CGTGCATA,0.0644
2,AGGTACAT,0.367
3,CCCTAGGA,-0.191
4,CGGTTTCC,-0.0596
5,CAACAGTC,-0.167
6,AATCACGA,-0.189
7,CTCGTATC,-0.0313
8,TCTGTCAA,0.0185
9,CTGTCTGA,-0.00697
10,ATGTCCGC,-0.18
11,AGTCAGTA,0.00564
12,GCTCCTCA,-0.332
13,ATAATTTC,-0.00851
14,ATAGGAAA,0.429
15,AGTCCTTC,-0.0861
16,ATCCTATC,-0.144
17,GTGAGACA,-0.288
18,GCCAAACC,-0.297
19,ACGAACCC,-0.07
20,CCGAAGAA,-0.223
21,TATACTCA,0.136
22,ACTCAACC,-0.0726

row,Sequence,PBM E-score
1,GCCGGCCA,-0.218
2,ACCCCAAT,-0.162
3,GAGCTAAC,-0.0447
4,AGTCAGTC,-0.219
5,AATTCCGG,-0.0255
6,CGAGCGGC,-0.214
7,CAAAGCAA,0.0343
8,CCCATCCA,-0.275
9,CGATGCCG,-0.268
10,AGTACACG,0.357
11,CATACTAC,0.108
12,GGTAACAA,0.203
13,GACGCGTA,0.284
14,AGAAACGG,-0.079
15,GCTGATTA,0.144
16,CAGCTCGA,-0.265
17,AGTCGCCG,-0.214
18,AAGTTGTC,-0.00484
19,CGGGGATC,-0.303
20,CTGTTCCC,-0.157
